# Results reported in the supplement of paper PMC4166925.
# ± gives the standard deviation of the averaged measurements. Over roughly 33,000 sequences, “E-score (dimensionless, -0.5 to 0.5)” has its median near -0.046; the highest 2% begin near 0.36. The list shows a part of the results.
# System: T1, SpTbr T-box DNA-binding domain (GST fusion)
# T1 sequence: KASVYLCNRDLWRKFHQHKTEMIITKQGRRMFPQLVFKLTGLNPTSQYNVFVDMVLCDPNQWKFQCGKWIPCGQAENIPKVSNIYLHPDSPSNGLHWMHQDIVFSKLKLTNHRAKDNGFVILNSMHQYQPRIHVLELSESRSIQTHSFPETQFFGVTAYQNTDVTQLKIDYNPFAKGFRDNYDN
# Experiment: PBM E-score of 8-mer (E-score (dimensionless, -0.5 to 0.5)); Tbr is Tbrain of the sea star Patiria miniata (Pm) or the sea urchin Strongylocentrotus purpuratus (Sp); higher = stronger binding preference; most listed sequences are background and not binding sites
# Conditions: the construct has about 5 more residues each side
# How it was run: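 Expression of GST-fused Tbr T-box DNA-binding domains, each holding the full T-box plus roughly five flanking residues, was carried out in BL21 E. coli at 20 °C, with purification by glutathione affinity chromatography. Universal Agilent arrays made double-stranded by primer extension were incubated with the protein at 200 nM in PBS (pH 7.5), then scanned and quantified. All ungapped 8-mers were scored from probe intensities, and each received an enrichment E-score from the Universal PBM Analysis Suite, averaged over duplicate arrays.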
row,Sequence,PBM E-score of 8-mer
1,CACCCTTC,0.223 ± 0.091
2,TTACATAA,-0.159 ± 0.063
3,TCCGCGGA,0.12 ± 0.015
4,CAACAAAA,0.0801 ± 0.058
5,AGGAAACG,-0.0312 ± 0.015
6,CCCGTAAC,0.04512 ± 0.00042
7,TGAGGCAA,-0.0235 ± 0.018
8,ACTCTATG,-0.0733 ± 0.034
9,ACGGTCAG,0.0832 ± 0.032
10,ACTGTGAA,0.413 ± 0.0064
11,CACTTGCA,0.336 ± 0.012
12,CAAGGCGA,0.159 ± 0.041
13,GGTGAGAA,0.4745 ± 0.0016
14,ACTCGATC,-0.0258 ± 0.031
15,CAGTTACG,-0.05462 ± 0.00042
16,TCCAGAAA,-0.167 ± 0.023
17,ATGCTATC,0.011 ± 0.02
18,CTAAGTGA,0.104 ± 0.047
19,GCGCCATA,0.0555 ± 0.011
20,AGTTTGCA,0.136 ± 0.066
21,AAATGCAG,-0.289 ± 0.028
22,TCTTGCCA,0.0555 ± 0.002
23,TCAGGGAA,-0.125 ± 0.011
24,CGTCGTAA,-0.0772 ± 0.029
25,CACAGATC,0.0391 ± 0.007

row,Sequence,PBM E-score of 8-mer
1,AATGGGTC,-0.142 ± 0.097
2,CCGATCCC,-0.168 ± 0.0025
3,AAGATTGG,-0.15 ± 0.095
4,GGCACGAC,0.00524 ± 0.06
5,AAATTCTG,-0.136 ± 0.06
6,CAACTTCC,-0.0224 ± 0.038
7,ACCTAGTG,0.2 ± 0.013
8,AGAGACTA,-0.106 ± 0.01
9,CACAGCTC,0.248 ± 0.034
10,CATGTGGG,0.0753 ± 0.0088
11,AACGGTTC,0.12 ± 0.019
12,CACAGTGA,0.207 ± 0.049
13,ACCTGTTC,0.193 ± 0.013
14,AAAGACAA,-0.162 ± 0.0039
15,CCGGCAAA,-0.182 ± 0.08
16,ACACCATC,0.3674 ± 0.0022
17,AGCACAAT,0.0742 ± 0.023
18,GTAATAAA,-0.155 ± 0.051
19,GTCAGTTA,0.0997 ± 0.035
20,ACCGACGT,-0.1251 ± 0.00093
21,ATCTACTG,-0.163 ± 0.0056
22,GCACGTTA,0.202 ± 0.041
23,CCCAGGCG,-0.0389 ± 0.089
24,CTCTTCTC,-0.0569 ± 0.048
25,CATTCACA,0.427 ± 0.014

row,Sequence,PBM E-score of 8-mer
1,ACTTGCTC,0.06898 ± 0.00037
2,ACCATAAT,0.0573 ± 0.041
3,CATGTTTA,-0.0355 ± 0.09
4,GGAACTGA,-0.00643 ± 0.048
5,ACGGATAG,-0.0189 ± 0.0053
6,ACGGCCGA,-0.293 ± 0.012
7,CAGCGTCG,-0.0615 ± 0.045
8,ATGTAAGG,-0.121 ± 0.051
9,CCAGAGCC,-0.186 ± 0.031
10,CGCTTCTC,0.0904 ± 0.024
11,GACTAATA,-0.1458 ± 0.0012
12,GATCTATA,0.0294 ± 0.074
13,ACCTGTCC,0.151 ± 0.0082
14,CTGGCCAC,0.0324 ± 0.095
15,CAAACCCG,0.0374 ± 0.013
16,AGTTAGCC,-0.128 ± 0.013
17,TAGAAATA,-0.238 ± 0.017
18,AGTGAACA,0.175 ± 0.0043
19,TGGTCGAA,-0.131 ± 0.049
20,GATTTGTA,-0.145 ± 0.019
21,GTTGTTGA,0.239 ± 0.044
22,CGCTTTAG,-0.0469 ± 0.0032
23,AGAATGCC,-0.229 ± 0.038
24,GAAATGAC,0.12 ± 0.065
25,AATTTTGC,-0.00565 ± 0.0049

row,Sequence,PBM E-score of 8-mer
1,AAGCCCTG,-0.226 ± 0.021
2,AATATGCG,0.116 ± 0.052
3,GCAGGACC,-0.0831 ± 0.1
4,CCACTATA,0.0162 ± 0.05
5,GTTTCCGA,-0.0578 ± 0.048
6,GCCGGAGC,-0.199 ± 0.066
7,CCCATTCG,-0.14 ± 0.0048
8,CAGCATCG,0.0113 ± 0.0051
9,AGGGATTC,-0.18 ± 0.03
10,CGCTGGCA,0.211 ± 0.023
11,CCATATGC,-0.0336 ± 0.025
12,CCTATTAG,-0.06 ± 0.066
13,CCCCATAA,-0.273 ± 0.024
14,ACTCGCCG,0.131 ± 0.01
15,CATCCCGC,-0.132 ± 0.064
16,CAGACTCA,-0.0949 ± 0.051
17,GTACACCA,-0.0592 ± 0.12
18,ATACGAGG,-0.3792 ± 0.0018
19,AGCCGCGA,0.276 ± 0.029
20,GGACGATA,0.0235 ± 0.059
21,CGTCGCGC,0.2094 ± 0.0019
22,GATTCCGA,-0.0984 ± 0.059
23,AAACTAGT,-0.153 ± 0.08
24,ATGAGCGC,-0.145 ± 0.025
25,AAAGATTA,-0.192 ± 0.033

row,Sequence,PBM E-score of 8-mer
1,CGCTCTTC,-0.132 ± 0.037
2,GGACAGAA,-0.164 ± 0.067
3,TCGCCTAA,-0.0189 ± 0.12
4,CCTAACAG,0.0988 ± 0.11
5,ACGTTATG,0.082 ± 0.013
6,CATGGCTA,-0.27 ± 0.059
7,GCTTATTA,-0.086 ± 0.061
8,AACTCGAA,-0.00982 ± 0.018
9,AGCTCATC,-0.24 ± 0.004
10,CGCAGTAC,0.115 ± 0.007
11,GACGGGCA,-0.2934 ± 0.0011
12,CGTTCAAC,-0.173 ± 0.047
13,CTTGCTGC,-0.0321 ± 0.069
14,GATGCAAC,-0.143 ± 0.02
15,CTAGATCA,-0.142 ± 0.064
16,ACCGTGAG,0.179 ± 0.03
17,TTAAGGAA,0.0228 ± 0.052
18,ACACGAAG,0.0299 ± 0.029
19,AGGAAAGG,-0.0689 ± 0.11
20,AAATGTTC,-0.0543 ± 0.022
21,CTTTGAGA,-0.0749 ± 0.054
22,ATTCCGCA,-0.0472 ± 0.016
23,AACCCATG,-0.0687 ± 0.051
24,CCCCCTTC,-0.173 ± 0.023
25,CAACATTC,0.0397 ± 0.048

row,Sequence,PBM E-score of 8-mer
1,TGCCACAA,0.117 ± 0.015
2,CGTTACGC,-0.0437 ± 0.0086
3,CTAAAAGC,-0.0587 ± 0.058
4,AGCGCTTC,-0.0142 ± 0.07
5,CCCGAACG,-0.228 ± 0.019
6,CAAAATGG,-0.184 ± 0.036
7,TAACGGAA,-0.0621 ± 0.14
8,CACTTGGG,0.295 ± 0.032
9,ACCCGGGT,0.0256 ± 0.038
10,AAGAGCAT,-0.115 ± 0.075
11,ACATGGTG,0.275 ± 0.022
12,ACGGGACC,-0.226 ± 0.0053
13,CTCGAGGA,0.126 ± 0.0096
14,ATGGCAAG,0.125 ± 0.045
15,AGTATCAG,-0.15 ± 0.0022
16,CTGATCCC,-0.0431 ± 0.068
17,CTACATAG,-0.0403 ± 0.05
18,AAGCTCAC,0.153 ± 0.024
19,AGATGGCT,-0.0768 ± 0.061
20,CCCCTCGG,-0.255 ± 0.051
21,ACCACGAC,-0.0488 ± 0.1
22,GCTTGCGA,0.16 ± 0.0045
23,ATTCATTG,-0.223 ± 0.079
24,ATAAGTGA,0.217 ± 0.063
25,AGCTGCCC,-0.174 ± 0.096

row,Sequence,PBM E-score of 8-mer
1,AGCGTAGA,-0.0444 ± 0.021
2,AATCAGGA,-0.224 ± 0.017
3,GCCAATAC,-0.0685 ± 0.058
4,ATCACATG,0.268 ± 0.0082
5,ACAACGGA,-0.066 ± 0.0092
6,GACCCGCC,0.0388 ± 0.1
7,CCACCACC,0.101 ± 0.038
8,AATTGAAT,-0.0274 ± 0.094
9,CTACCACC,0.204 ± 0.027
10,GTGACCCA,-0.0916 ± 0.13
11,CGTGCACG,0.00996 ± 0.044
12,ATCCGCGG,0.00978 ± 0.039
13,CGACCACC,-0.151 ± 0.08
14,GATGTTTA,-0.0147 ± 0.024
15,ATAATAGA,-0.218 ± 0.095
16,AGACAGGC,-0.156 ± 0.058
17,AAGGTCCT,-0.0127 ± 0.028
18,ATACACGA,-0.0819 ± 0.022
19,CATACATA,-0.329 ± 0.038
20,AATCGAGT,-0.0417 ± 0.017
21,AATAACGA,0.186 ± 0.02
22,CGATACCC,-0.00698 ± 0.068
23,AGTGTTCG,0.205 ± 0.041
24,CCTTACGA,-0.119 ± 0.021
25,ATCTCTAA,-0.118 ± 0.026

row,Sequence,PBM E-score of 8-mer
1,TCATAACA,0.148 ± 0.074
2,ATTTATCC,-0.12 ± 0.08
3,TAAAATTA,-0.167 ± 0.052
4,AGAACCCG,0.124 ± 0.004
5,CACATAGA,0.158 ± 0.042
6,ACAGATCA,0.0135 ± 0.021
7,GGCGTGGA,0.104 ± 0.013
8,CACTCTCA,0.317 ± 0.00081
9,GAAATTAA,-0.222 ± 0.12
10,AATCTAGC,0.023 ± 0.042
11,GCATCAGC,-0.093 ± 0.0066
12,TAGCATCA,0.0144 ± 0.028
13,TCCCAAAA,-0.271 ± 0.0059
14,CTCCGTTC,0.155 ± 0.012
15,CACAGACC,-0.0948 ± 0.053
16,CAAGCAGG,-0.325 ± 0.024
17,ACGGCCAA,-0.146 ± 0.049
18,AGCAACTC,0.0392 ± 0.07
19,CGTCTCGC,0.267 ± 0.055
20,AATCTGAA,-0.315 ± 0.065
21,ATCAGACC,-0.0133 ± 0.013
22,GATGTAGC,-0.198 ± 0.11
23,GGAAGTCC,-0.195 ± 0.0047
24,AATGAGCT,-0.0884 ± 0.019
25,ATCGCAAC,0.232 ± 0.0099

row,Sequence,PBM E-score of 8-mer
1,AATATGCA,-0.0665 ± 0.015
2,AAAGGCTC,-0.214 ± 0.06
3,ACCTCTTA,0.0296 ± 0.06
4,TCTCACAA,0.296 ± 0.014
5,CTGATTCA,-0.0453 ± 0.0073
6,CAGTTGGA,-0.0808 ± 0.0045
7,GACTATCA,0.14 ± 0.0065
8,ATCAAAAC,-0.0331 ± 0.1
9,CGTCGATA,-0.0449 ± 0.015
10,GAAGAGTC,-0.23 ± 0.028
11,CCCTGATA,-0.33 ± 0.1
12,ATGTTAAA,-0.132 ± 0.075
13,CATTGCCC,-0.249 ± 0.077
14,ACGGATGG,0.0385 ± 0.055
15,ACGAGGGC,-0.171 ± 0.051
16,GCCTCATA,-0.138 ± 0.044
17,AGTAATCC,-0.148 ± 0.061
18,AGGGCGAG,-0.0154 ± 0.0063
19,ACTGGTCG,-0.242 ± 0.076
